Measurements published in the supplement of paper PMC11417369.
The other results are listed elsewhere or left out.

Test system: PfSIP2 AP2 domain 1 (GST-tagged)
Assay: gcPBM binding intensity (ln(normalized median fluorescence intensity)); higher = stronger DNA binding
Procedure, shortened: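 Each value is the highest Masliner-normalised natural-log median intensity across replicate spots of either orientation of a probe. The probes were primer-extended double-stranded 36-bp intergenic genomic sequences on an Agilent 4 × 180k array, alongside negative controls, exposed for 1 h to GST-tagged P. falciparum DNA-binding domains expressed in E. coli. Bound protein was picked up with Alexa488 anti-GST antibody and scanned at 488 nm.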

| Sequence | gcPBM binding intensity (ln) |
| --- | --- |
| TTTTGAAGTAACAAATAAATAAATAAATATATAAAA [GTGCAC_negctrl_site517] | 6.92 |
| ATTCATTCATATGTTACACACACACCGACACATAAA [CACACA_site5749] | 7.45 |
| TATTAAACTGGACACACACACACACCCATATATAAA [CACACA_site4579] | 7.47 |
| AAAATAATCACATATTGTACAAAAAAATTTATTAAA [XGTACX_site3239] | 6.83 |
| TATATTAATATGAAAAGTACACATTCTATATATATA [XGTACX_site929] | 8.05 |
| ACATAATTTGATAATACACACAAATAATCTAAAATT [CACACA_site129] | 7.02 |
| AAAAAAAAAAAAAAATGTACCCATATATAAATATAT [XGTACX_site4061] | 7.25 |
| AAAAAATGGATGATCACACACTTCATAAAAATTGCA [CACACA_site5256] | 6.61 |
| TTTAATTATAAAACGTGTACATAATTATAATTACAT [XGTACX_site2206] | 7.07 |
| ATCATTTGCTCACGCACACACACATAAAAAGAAAAA [CACACA_site4349] | 7.51 |
| ATTATGTACAAAATGGTGCAATATTATACATATATA [GTGCAC_site9468] | 10.4 |
| AAAAATAGTATAAGTAGTACAACTGAAAAGTTATGT [XGTACX_site7488] | 6.92 |
| ACTACATTATGTCATACATGCATACATACGTGGTTT [TGCATGCA_site732] | 7.15 |
| AGTAATTTAAGGAATACACACAAGAAAAAAATAAGA [CACACA_site6177] | 7.27 |
| CATTAAAAGTATAATTGTACTTTTCATTTATATATT [XGTACX_site7536] | 6.92 |
| TTCTCAAAATTAAAATAACAGATTAACGAACTAACG [CACACA_negctrl_site1720] | 6.92 |
| TAATATATATATATATGTACATATATATTATGTATA [XGTACX_site4690] | 7.19 |
| AGATTATTTAGAATGTGTACATATTACACATACATG [XGTACX_site8634] | 7.3 |
| CATACATACAAACACACACACACACCCATATATATA [CACACA_site2918] | 7.62 |

| Sequence | gcPBM binding intensity (ln) |
| --- | --- |
| GTATACCTTTTGACATGTACGTATGTATATTTGGGT [XGTACX_site720] | 7.28 |
| TTTTTAACCAAACATCAAAACATATTTTTTTGTTAT [CACACA_negctrl_site385] | 6.87 |
| ATTATAATGTTAATGTGTACATATGATTCCTTAATT [XGTACX_site181] | 7.27 |
| TATGTTTTTACATATTGTACATATTCTTGTAATACG [XGTACX_site1179] | 7.19 |
| TATGTGTGCAAAAACTGTACACATTAAAGGTATATA [XGTACX_site7627] | 7.54 |
| TACTTTCAAAAGATCACACATATATATATATATATA [CACACA_site5630] | 9.6 |
| TAATAACATACAGACACACACGTAAAAGCACGTGTA [CACACA_site4299] | 6.87 |
| ATAAATAAATAAGTACATATATATATGTATATATAT [TGCATGCA_negctrl_site223] | 7.92 |
| ATGACATGTTCTAAATGTACATTTTTTAACCCTTTT [XGTACX_site1858] | 6.79 |
| TATGGTTACATTATATGTACTAAACGAATATTTTTA [XGTACX_site5694] | 6.85 |
| TATACAAGTATATAGGTGCATATATAAGTATATATT [GTGCAC_site9994] | 10.3 |
| CATAGATACATACACGCACACACATATATATATATA [CACACA_site13] | 9.23 |
| GTATTACCTTATTATTGTACTTTCATGATATATATG [XGTACX_site5382] | 7.19 |
| TTAATGAATGGACACACACACATATATATATATATT [CACACA_site5294] | 7.5 |
| TACACAAGAAAATTCACACACACACCCATATATATA [CACACA_site3879] | 7.53 |
| AACATACATGTATATAGTACATATTACATCTGATAC [XGTACX_site3649] | 6.98 |
| CATATAAAAGGACACACACACACATATAAATATGTA [CACACA_site6568] | 7.24 |
| TGCTATTTTATTTATTCTTTTATAAAAGTATAATAT [XGTACX_negctrl_site358] | 7.14 |
| ATTTTTATAGAATGAACACACATATTATAGCATTTA [CACACA_site6842] | 6.88 |

| Sequence | gcPBM binding intensity (ln) |
| --- | --- |
| ATAAAAAAAATTTGCACACCTTCAAAGTAATATATA [CACACA_site1584] | 7.35 |
| TAATTTTTTTTTTTTTTTTTTGTACTTCATTTTTAT [CACACA_negctrl_site1395] | 7.03 |
| AAAAAAAAAAAAAGTACATGCAATATGGATCTTAAA [TGCATGCA_site367] | 7.06 |
| AACATTCTAAAACACACACACACATATATATATATA [CACACA_site1052] | 9.1 |
| TACACAAGCGGACACACACACATATATATATATATA [CACACA_site4832] | 9.83 |
| TATATATAAAAAAGCACACATACATACATACATAAT [CACACA_site890] | 6.95 |
| TTTTCACTTTTAAAAACATGCATACTTTATAAAATA [TGCATGCA_site967] | 7.27 |
| AAAAAAAAAAAACACACACACACATAAATATATATA [CACACA_site149] | 7.36 |
| TATTAACATATATAAAGTACATTAAACAACATTGTA [XGTACX_site7667] | 6.99 |
| TGTAAATTTGGCATCACACATAAATAAACATATAAA [CACACA_site4497] | 7.02 |
| AAAAGAAATATTTATACACACACACTAACATATATA [CACACA_site8580] | 6.94 |
| GTGAAAAAAAACATATGTACTTATACACTAATCTAT [XGTACX_site7600] | 7.2 |
| TTATATATAATTACATGTACGTAGTATTATTTAAAT [XGTACX_site3418] | 7.18 |
| TTATCATTTTAATGGTGTACTCAATAAAAACTTTAA [XGTACX_site4595] | 6.97 |
| ATGTCTATAATAAGAACACACATATATTTAATTTAA [CACACA_site7394] | 6.92 |
| TGGTAAAGGAGCAAGATGATAAATCTCCATAACTTT [CACACA_negctrl_site492] | 6.7 |
| CTATATTCGTTTAATAGTACATATATAACTAGACAA [XGTACX_site5770] | 7.19 |
| GTTGGTACCTTACTTTTACACACTTTTTTTTTTTTT [CACACA_site8441] | 6.89 |
